From the supplement of paper PMC11417369 come the findings set out here.

Some of the results follow.

In this assay the test system is PF3D7_0420300 AP2 domain 1 (GST-tagged). The experiment in a line: gcPBM binding intensity (ln(normalized median fluorescence intensity)); higher = stronger DNA binding. The procedure, abridged: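 GST-fused DNA-binding domains of P. falciparum, expressed in E. coli, were applied at about 25 μg on average for 1 h to an Agilent 4 × 180k array of primer-extended double-stranded 36-bp intergenic genomic probes and negative controls. Binding intensity is the highest Masliner-normalised natural-log median intensity across replicate spots of either probe orientation, measured with Alexa488 anti-GST antibody and a 488 nm scan.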
On to “AACAAAACCTTATATGTACACACATATACATCACAC [CACACA_site9037]”, for which the “gcPBM binding intensity (ln)” value worked out at 9.8.

As for “ACAGCTACCAGATACTGTACTTTTCTCCAGACTGCA [XGTACX_site2541]”, the “gcPBM binding intensity (ln)” value came to 9.07.

Take “AATTTATAATTATAGAGTACATATTTTTAATATATA [XGTACX_site2566]”: the “gcPBM binding intensity (ln)” value was 9.08. Next, “GTAATAATTTTTTGTAGTACACAAAAATTCATATTT [XGTACX_site2699]”: 9.11; “ATATACACTTAATTTTTTATAAAAAAAAATTTATAT [CACACA_negctrl_site498]”: 8.95; “ATATACATAATCTTCTTGCACTTTTTTTTTTTTTTT [GTGCAC_site9410]”: 9.6. As to “ATGTGATATAAGTACACACACATATGTATTTATAAC [CACACA_site6942]”, the “gcPBM binding intensity (ln)” value stood at 9.73.

For “TAAATATATTAATACACACACGATATGTACAAAAAA [CACACA_site540]”, the “gcPBM binding intensity (ln)” value was 9.82. With “TGCATATACGCAAGCACACATATATATATATATATA [CACACA_site1069]” the figure was 9.17; with “TTTTGATTTCCTATTGCACACTTTTTTTAAGTTTAT [CACACA_site1056]”, 9.56. With “TATATATATATATAATGTACATATAATATATTTATT [XGTACX_site7892]” the figure was 9.08.

“GCTTAATGTCATATATCACACATGAAAATATATATA [CACACA_site5089]”: the “gcPBM binding intensity (ln)” value came out at 9.28. Next, “GTATAAAAAAATAAAAGTACAAAAAAAAAAGACTGA [XGTACX_site186]”: 9.67; “AAATAAAAAATATGAACACACATATATAACAAAATA [CACACA_site261]”: 9.86. With “TTTTTTTTTTTTTTTTTTTTTTTTTTTTTTTTTTTT [CACACA_negctrl_site104]” the figure was 9.41. With “AGGATTAAAAAAACATGTACGTATTTAAATATATTT [XGTACX_site8774]” the figure was 9.36; with “AATTGAATAAATTAAACATGCACAGATGTTCTATTT [TGCATGCA_site692]”, 9.08; with “TACTGGTATCGATATAGTACATATAATATTATGTTA [XGTACX_site7490]”, 9.28. “TTATTTAAAAAATTTTTAAATATACAAAAAAAAAAA [TGCATGCA_negctrl_site464]”: the “gcPBM binding intensity (ln)” value is 8.78.

As to “TTAATAATTAATTATAGTACACATTTATATTAATAA [XGTACX_site190]”, the “gcPBM binding intensity (ln)” value came to 9.03. Next, “ATTATAAGAAGGGGGGGTACATAAATATAAATGTAT [XGTACX_site5624]”: 10.3. Next, “TTTAATTTTCGGTGTGCACACAACTATGAGTTTTTA [CACACA_site3034]”: 9.54; “TTTAAAAAAAAAAATACACACATAAAAATTTTCAAA [CACACA_site703]”: 9.33. Next, “ATATAAATAAAATATACACACATAAATATAACGACA [CACACA_site1637]”: 9.98.
